According to PMC5481654, “Identification of the anti-mycobacterial functional properties of piperidinol derivatives” (British journal of pharmacology, 2017):
Converted amounts (≈) assume the structure as drawn.

Tested on: M. smegmatis resistant mutants
Assay: microbe, parasite or virus in culture
Format: cell-based
Details: for MIC: Mycolicibacterium smegmatis, mean ± SEM
[1] = mutant resistant to Compound 1, isolate 1
[2] = mutant resistant to Compound 1, isolate 3
[3] = mutant resistant to Compound 2, isolate 1
[4] = mutant resistant to Compound 2, isolate 2

| Compound | susceptibility of the resistant mutants | MIC [1] [µg/mL] | MIC [2] [µg/mL] | MIC [3] [µg/mL] | MIC [4] [µg/mL] |
| --- | --- | --- | --- | --- | --- |
| NNC(=O)c1ccncc1 [isoniazid] | fully susceptible | 25 (≈ 182 µM) |  |  |  |
| CO[C@H]1/C=C/O[C@@]2(C)Oc3c(C)c(O)c4c(O)c(c(/C=N/N5CCN(C)CC5)c(O)c4c3C2=O)NC(=O)/C(C)=C\C=C\[C@H](C)[C@H](O)[C@@H](C)[C@@H](O)[C@@H](C)[C@H](OC(C)=O)[C@@H]1C [Rifampicin, reference compound] | fully susceptible | 5 (≈ 6.08 µM) | 10 (≈ 12.2 µM) | 10 (≈ 12.2 µM) |  |
| CN(CCC(=O)c1ccccc1)CCC(=O)c1ccccc1 [Compound 2, 3,3′-(methylazanediyl)bis(1-phenylpropan-1-one)] |  | 156 (≈ 528 µM) | 375 ± 62.5 (≈ 1270 µM) | 375 ± 62.5 (≈ 1270 µM) | 281 ± 31.3 (≈ 952 µM) |
| CN1CCC(O)(c2ccccc2)C(C(=O)c2ccccc2)C1 (centres unmarked) [Compound 1] |  | 375 ± 62.5 (≈ 1270 µM) | 375 ± 62.5 (≈ 1270 µM) | 172 ± 38.2 (≈ 581 µM) | 266 ± 46.9 (≈ 899 µM) |
